Results reported in PubChem BioAssay AID686978 (National Center for Advancing Translational Sciences (NCATS), 2013).
Values joined by “and” are separate entries in the source; they are usually repeats but may differ in a detail not shown here. Equal entries are not always repeated. The whole screen tested about 420,000 compounds, of which about 64,000 (15%) were called active. The inconclusive results got no clear call from the source; some entries with a clear call stand among them for comparison. Calls follow the shape of the dose curve; as a rule, active = well fitted inhibition curve with a large enough effect; inconclusive = small, poorly fitted or top-dose-only effect; inactive = flat fitted curve, though single readings scatter. Where the call is inconclusive, the potency comes from a doubtful curve fit. Some compounds were tested as several samples or in several runs, with calls that do not always agree.
% is scaled to controls: 0 for no effect and ±100 for the full control effect; potency is read from the fitted curve at half-maximal effect; tags tell the direction and shape of the fitted curve.

Assay: qHTS for Inhibitors of human tyrosyl-DNA phosphodiesterase 1 (TDP1): qHTS in cells in absence of CPT; also: nearly all actives have a fitted effect of over 55% in size
Details: DT40 Tdp1-/- hTDP1 cells, no CPT, ATP luminescence, 48 h; activity change, negative = growth inhibition: at 46.2 µM (top of the series) unless noted
Procedure, shortened: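 Seeded 400 DT40-hTDP1 cells/well (vehicle DMSO, no 20 nM CPT); pinned compounds; ≥48 hr at 37 °C; CellTiter-Glo luminescence as viability measure.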
In the case of COCCNc1nc(SCC(=O)N2CCN(c3ccccc3)CC2)nc2ccccc12, the Potency is reported as inconclusive: 25.9 µM [inhibitor, single point]. For COC(=O)Cc1ccc(NC(=S)Nc2ccccn2)cc1, the Potency was inconclusive: 29.1 µM [inhibitor, single point]. In the case of CC1(c2ccccc2)NC(=O)N(CC(=O)Nc2ccccc2N2CCCCC2)C1=O (stereo not drawn), the Potency is reported as inconclusive: 29.1 µM [inhibitor, single point]. With CC1CCC2(CC1)NC(=O)N(CC(=O)Nc1ccccc1-c1ccccc1)C2=O (stereo not drawn) the Potency was inconclusive: 18.4 µM [inhibitor, single point]. For CCc1ccc(C(=O)NNC(=O)c2cccc(N3C(=O)CCC3=O)c2)cc1, the Potency was “inactive”. For Cc1ccc(-n2c(N)c(C(=O)N3CCN(C)CC3)sc2=S)cc1, the Potency was “inactive”. With CC1CCN(C(=O)C(=O)Nc2sc3c(c2C(N)=O)CC(C)(C)OC3)CC1 the Potency was “inactive”. With CCC1=NN2C(=N)/C(=C\c3cccn3-c3ccc(Cl)cc3)C(=O)N=C2S1 the Potency was “inactive”. For COc1ccc(Cn2ccc(=O)c(Cc3c(Cl)cccc3Cl)c2C)cc1, the Potency was inconclusive: 29.1 µM [inhibitor, single point]. With c1ccc(-c2ccn3nnnc3n2)cc1 the Potency was inconclusive: 15.8 µM [inhibitor, single point]. With O=C(COc1nsnc1N1CCOCC1)N/N=C/c1ccccc1O the Potency was active: 2.59 µM. In the case of CCOC(=O)C1CCCN(C(=O)C2CCN(S(=O)(=O)c3cccs3)CC2)C1 (stereo not drawn), the Potency is reported as inconclusive: 29.1 µM [inhibitor, single point]. With Cc1ccc2nc3ccc(N4CCCC4)nn3c(=O)c2c1 the Potency was inconclusive: 25.9 µM [inhibitor, single point]. For COc1ccc(N(CC(=O)NCc2ccc3c(c2)OCO3)S(=O)(=O)c2ccccc2[N+](=O)[O-])c(OC)c1, the Potency was inconclusive: 29.1 µM [inhibitor, single point]. With Cc1ccsc1C1NC(=O)c2c(sc3c2CCCC3)N1 (stereo not drawn) the activity change, negative = growth inhibition was inconclusive: -32.9% [inhibitor]. For O=C(Nc1nc(-c2cccs2)cs1)c1cccc(S(=O)(=O)N2CCCCCC2)c1, the Potency was inconclusive: 17.8 µM [inhibitor, single point]. For Cc1ccc(-n2c(C)c([N+](=O)[O-])c3ccc(O)c(CN(C)C)c32)cc1, the Potency was inconclusive: 7.31 µM [inhibitor, partial curve]. For COc1ccc(C(=O)/C=C/Nc2ccc([N+](=O)[O-])cc2C)c(OC)c1, the Potency was inconclusive: 35.5 µM [inhibitor, single point]. With COc1ccccc1C1(CCNC(C)c2cccs2)CCOC(C(C)C)C1 (stereo not drawn) the Potency was inconclusive: 29.1 µM [inhibitor, single point]. With Cc1ccc(-c2nnc(Nc3ccc(OCC(N)=O)cc3)c3ccccc23)cc1S(=O)(=O)NCC1CCCO1 (stereo not drawn) the Potency was inconclusive: 29.1 µM [inhibitor, single point]. In the case of CCCCN1CCC(CCC(=O)c2cc(Cl)c(N)cc2OC)CC1, the Potency is reported as active: 26.6 µM. In the case of COc1ccc2c(OC)cc(=O)n(C)c2c1, the Potency is reported as “inactive”. With O=C(c1cnccn1)N1CCc2c([nH]c3ccccc23)C1c1cccc(Cl)c1 (stereo not drawn) the Potency was “inactive”. With COc1cc2c(cc1OC)CN(C(=O)c1ccc(OC)c(S(=O)(=O)N3CCOCC3)c1)CC2 the Potency was “inactive”. For CCOc1ccc(NC(=O)C2CCCN(S(=O)(=O)c3ccc4c(c3)CC(C)N4C(C)=O)C2)cc1 (stereo not drawn), the Potency was “inactive”. With O=C(CN1CCCC1c1cccs1)N1CCN(S(=O)(=O)c2cccc(F)c2)CC1 (stereo not drawn) the Potency was “inactive”. With COc1cc2c(cc1OC)C(c1ccc(N)cc1)=NNC(=O)C2 the Potency was active: 21.1 µM and active: 14.6 µM. With O=C(CC[C@H]1O[C@@H](n2cnc3c(NC(=O)c4ccccc4)ncnc32)[C@H](O)[C@@H]1O)NCc1ccco1 the Potency was “inactive”. In the case of Cc1cc(C)c(C)c(S(=O)(=O)Nc2ccccc2C(=O)NCCCn2ccnc2)c1C, the Potency is reported as active: 5.8 µM. With CCc1nc2ccc(C(=O)NCCCN3CCCC3=O)cn2c1N(CC)C(=O)NCCc1ccccc1 the Potency was “inactive”. For CCOC(=O)c1[nH]c2ccccc2c1NC(=O)c1ccc(C)c(C)c1, the Potency was inconclusive: 10.3 µM [inhibitor, partial curve]. For Nc1c(Cl)ncnc1N/N=C/c1cccc(O)c1, the Potency was “inactive”. For CN(Cc1c(F)cccc1Cl)C(=O)c1ccc(COc2ccccc2)cc1, the Potency was inconclusive: 18.4 µM [inhibitor, single point]. With Cc1noc(Cn2c(=O)c3ccccc3n(CC(=O)Nc3cc(Cl)ccc3C)c2=O)n1 the Potency was “inactive”. In the case of COc1cc2nc(N(CCCN(C)C)C(=O)c3ccc(S(=O)(=O)N(C)C4CCCCC4)cc3)sc2cc1OC, the Potency is reported as active: 16.4 µM. With CCN(CC)CCOC(=O)c1ccc(N/C=C(/C#N)c2nc(-c3cc4ccccc4oc3=O)cs2)cc1 the Potency was active: 2.31 µM. For CN(C)/C=C/C(=O)c1ccccc1OCc1cnc(Cl)s1, the Potency was “inactive”. With CNS(=O)(=O)c1ccc(NCC2COc3ccccc3O2)c([N+](=O)[O-])c1 (stereo not drawn) the Potency was inconclusive: 29.1 µM [inhibitor, single point]. With Cc1ccc(CNC(=O)C2CCN(C(=O)N3CC(C)Oc4ccc(Cl)cc43)CC2)cc1 (stereo not drawn) the Potency was active: 18.4 µM. With Cc1ccccc1NS(=O)(=O)c1ccc2c(c1)oc(=O)n2C the activity change, negative = growth inhibition was inconclusive: -6.13% [inhibitor]. For CCC(C(=O)NCCc1ccc(OC)c(OC)c1OC)n1nc(C)c2sc3ccccc3c2c1=O (stereo not drawn), the Potency was active: 11.6 µM. In the case of CCc1cccc(OCC(=O)Nc2ccc(S(=O)(=O)Nc3onc(C)c3C)cc2)c1, the Potency is reported as “inactive”. With CC(=O)NC1CCN(CC(=O)Nc2nccs2)CC1 the Potency was “inactive”. In the case of C[C@H](CO)N1C[C@H](C)[C@@H](CN(C)Cc2ccncc2)Oc2ncc(Br)cc2C1=O, the Potency is reported as “inactive”. With Cc1ccc(-n2c(=O)c3c(cnn3C)n(CC(=O)Nc3cccc(Cl)c3)c2=O)cc1 the Potency was inconclusive: 23.1 µM [inhibitor, single point]. With COCC(=O)N1CCC(n2nccc2NC(=O)c2ccccc2OC)CC1 the Potency was “inactive”. For O=C1CCCC(=O)N1c1ccc(N2CCN(c3ccccc3)CC2)c([N+](=O)[O-])c1, the Potency was inconclusive: 5.17 µM [inhibitor, full curve]. For Cc1nc(N)nc(N)c1Oc1ccc(Cl)cc1, the Potency was inconclusive: 13 µM [inhibitor, partial curve]. With COc1ccc(C(=O)N(C)C2CCN(C)CC2)cc1S(=O)(=O)Nc1cc(Cl)ccc1Cl the Potency was “inactive”. With COc1ccc(N2CC(C(=O)Nc3ccccc3N3CCCC3)CC2=O)c(OC)c1 (stereo not drawn) the Potency was active: 4.61 µM. With CCOc1ccc(NC(=O)c2ccc3c(=O)n4c(nc3c2)CCCCC4)cc1 the Potency was inconclusive: 13 µM [inhibitor, partial curve, poor fit] and inconclusive: 20.6 µM [inhibitor, partial curve]. For C[C@H](NC(=O)C1CC(=O)N(c2ccc3c(c2)OCO3)C1)C(=O)NC1CCCCC1 (stereo partly drawn), the Potency was inconclusive: 29.1 µM [inhibitor, single point]. In the case of CC(C)c1ccc(CNc2ccc([N+](=O)[O-])cn2)cc1, the Potency is reported as inconclusive: 25.9 µM [inhibitor, single point]. For CC1C(c2ccccc2)=Nn2c(=O)n(-c3ccccc3)c(=O)n21 (stereo not drawn), the Potency was active: 23.1 µM. With CCN(CC)c1ccc(-c2n[nH]c(=S)n2-c2ccccc2C)cc1 the Potency was active: 18.4 µM. In the case of Cc1nn(-c2ccccc2)c(Cl)c1C(=O)OC(C)C(=O)NC(=O)NC1CCCCC1 (stereo not drawn), the Potency is reported as inconclusive: 22.4 µM [inhibitor, single point]. In the case of Cc1ccc(CSc2nc3ccccc3c3nc(CCn4c(C)nc5ccccc54)nn23)cc1, the Potency is reported as “inactive”. With CN(C)c1nc(=S)nc(NCc2ccccc2)[nH]1 the Potency was inconclusive: 29.1 µM [inhibitor, single point]. With N=c1c(C(=O)NC2CCCC2)cc2c(=O)n3ccccc3nc2n1Cc1ccccc1 the Potency was inconclusive: 5.17 µM [inhibitor, single point]. With CCC(C)NC(=O)c1cc2cc3ccc(OC)cc3nc2s1 (stereo not drawn) the Potency was inconclusive: 20.6 µM [inhibitor, single point]. In the case of O=C(NCCN1CCOCC1)c1ccc2c(c1)N(Cc1c(F)cccc1Cl)C(=O)c1ccccc1S2, the Potency is reported as inconclusive: 29.1 µM [inhibitor, single point]. In the case of COc1ccc2cc(C(N)=O)c(=Nc3ccccc3)oc2c1, the Potency is reported as active: 14.6 µM. In the case of O=C(Nc1ccccc1)C(=O)c1c[nH]c2ccccc12, the Potency is reported as “inactive”. With COc1ccc(CCNCc2ccc(OCc3ccccc3)cc2)cc1 the Potency was inconclusive: 16.4 µM [inhibitor, single point]. With COc1ccc(S(=O)(=O)N(C)C[C@H]2Oc3ccc(NC(=O)C4CC4)cc3C(=O)N([C@H](C)CO)C[C@@H]2C)cc1 the Potency was inconclusive: 18.4 µM [inhibitor, single point]. For CN1CCC(=NNC(=O)CSCc2ccccc2)CC1, the Potency was “inactive”. For Cc1cccc(-c2nc(NCCN(C)C)c3ccccc3n2)c1, the Potency was inconclusive: 16.4 µM [inhibitor, single point]. In the case of CC(Oc1cc2oc(=O)c3c(c2cc1Cl)CCCC3)C(=O)NCc1ccncc1 (stereo not drawn), the Potency is reported as inconclusive: 5.8 µM [inhibitor, partial curve]. In the case of O=C(NCCCn1ccnc1)c1cc(-c2ccncc2)nc2ccccc12, the Potency is reported as “inactive”. In the case of CCOc1ccc(S(=O)(=O)Nc2ccccc2C(=O)N(C)C2CCN(C)CC2)cc1, the Potency is reported as “inactive”. With C(=N\N1CCN(Cc2ccccc2)CC1)/c1cccs1 the Potency was “inactive”. With CC(C)Oc1ccc(CNC(=O)C(C)n2ccc3cc(S(=O)(=O)N4CCCCCC4)ccc32)cc1 (stereo not drawn) the Potency was active: 20.6 µM. With C/C(=N\NC(=S)Nc1ccc(F)cc1)c1ccc2c(c1)OCCO2 the Potency was active: 0.92 µM.
